According to patent publication US20070254863A1 (priority 2006, published 2007):

Target: human cannabinoid CB1 receptor (Homo sapiens, UniProt P21554)
Assay: biochemical
Assay type: binding
Conditions: cloned human CB1 receptor expressed in CHO cells; read-out: Affinity to CB1 (converted)

UniProt P21554, sequence (P21554 whole entry): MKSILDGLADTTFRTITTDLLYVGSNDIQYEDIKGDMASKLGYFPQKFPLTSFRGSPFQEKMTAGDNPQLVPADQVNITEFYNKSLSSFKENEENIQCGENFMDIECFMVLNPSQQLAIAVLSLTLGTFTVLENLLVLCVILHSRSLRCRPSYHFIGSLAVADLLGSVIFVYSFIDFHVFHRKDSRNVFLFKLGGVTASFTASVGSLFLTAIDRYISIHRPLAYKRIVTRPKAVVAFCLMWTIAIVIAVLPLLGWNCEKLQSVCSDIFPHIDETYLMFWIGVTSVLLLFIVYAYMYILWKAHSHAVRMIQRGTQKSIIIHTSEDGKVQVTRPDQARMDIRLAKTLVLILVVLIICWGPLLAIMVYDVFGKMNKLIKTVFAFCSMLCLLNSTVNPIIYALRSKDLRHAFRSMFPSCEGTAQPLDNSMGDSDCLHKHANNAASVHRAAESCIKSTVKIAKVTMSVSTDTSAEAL

Structure (SMILES)	Ki [nM]
CCNCCN/C(=N\S(=O)(=O)c1ccc(Cl)cc1)N1CC(c2ccccc2)C(c2ccc(Cl)cc2)=N1 (stereo not shown) [4-Chloro-N-[[3-(4-chloro-phenyl)-4-phenyl-4,5-dihydro-pyrazol-1-yl]-(2-ethylamino-ethylamino)-methylene]-Benzenesulfonamide]	7.94
CC(C)(CO)CN/C(=N\S(=O)(=O)c1ccc(Cl)cc1)N1CC(c2ccccc2)C(c2ccc(Cl)cc2)=N1 (stereo not shown) [4-Chloro-N-[[3-(4-chloro-phenyl)-4-phenyl-4,5-dihydro-pyrazol-1-yl]-(3-hydroxy-2,2-dimethyl-propylamino)-methylene]-benzenesulfonamide]	200
O=S(=O)(N=C(NCCCCN1CCCC1)N1CC(c2ccccc2)C(c2ccc(Cl)cc2)=N1)c1ccc(Cl)cc1 (stereo not shown) [4-Chloro-N-[[3-(4-chloro-phenyl)-4-phenyl-4,5-dihydro-pyrazol-1-yl]-(4-pyrrolidin-1-yl-butylamino)-methylene]-benzenesulfonamide]	39.8
CON(C)C(=NS(=O)(=O)c1ccc(Cl)cc1)N1CC(c2ccccc2)C(c2ccc(Cl)cc2)=N1 (stereo not shown) [4-Chloro-N-[[3-(4-chloro-phenyl)-4-phenyl-4,5-dihydro-pyrazol-1-yl]-(methoxy-methyl-amino)-methylene]-benzenesulfonamide]	200
O=S(=O)(N=C(NC1CCNCC1)N1CC(c2ccccc2)C(c2ccc(Cl)cc2)=N1)c1ccc(Cl)cc1 (stereo not shown) [4-Chloro-N-[[3-(4-chloro-phenyl)-4-phenyl-4,5-dihydro-pyrazol-1-yl]-(piperidin-4-ylamino)-methylene]-benzenesulfonamide]	6.31
CON/C(=N\S(=O)(=O)c1ccc(Cl)cc1)N1C[C@H](c2cccc(F)c2)C(c2ccc(Cl)cc2)=N1 [4-Chloro-N-{[3-(4-chloro-phenyl)-4-(3-fluoro-phenyl)-4,5-dihydro-pyrazol-1-yl]-methoxyamino-methylene}-benzenesulfonamide]	20
CN1CCCC1CN/C(=N\S(=O)(=O)c1ccc(Cl)cc1)N1CC(c2ccccc2)C(c2ccc(Cl)cc2)=N1 (stereo not shown) [4-Chloro-N-{[3-(4-chloro-phenyl)-4-phenyl-4,5-dihydro-pyrazol-1-yl]-[(1-methyl-pyrrolidin-2-ylmethyl)-amino]-methylene}-benzenesulfonamide]	5.01
CN1CCC(CNC(=NS(=O)(=O)c2ccc(Cl)cc2)N2CC(c3ccccc3)C(c3ccc(Cl)cc3)=N2)C1 (stereo not shown) [4-Chloro-N-{[3-(4-chloro-phenyl)-4-phenyl-4,5-dihydro-pyrazol-1-yl]-[(1-methyl-pyrrolidin-3-ylmethyl)-amino]-methylene]-benzenesulfonamide]	1
O=S(=O)(N=C(NCc1cccnc1)N1CC(c2ccccc2)C(c2ccc(Cl)cc2)=N1)c1ccc(Cl)cc1 (stereo not shown) [4-Chloro-N-{[3-(4-chloro-phenyl)-4-phenyl-4,5-dihydro-pyrazol-1-yl]-[(pyridin-3-ylmethyl)-amino]-methylene}-benzenesulfonamide]	398
N#Cc1cc(-c2ccc(Br)cc2)n(-c2ccc(Cl)cc2Cl)n1 [5-(4-Bromo-phenyl)-1-(2,4-dichloro-phenyl)-1H-pyrazole-3-carbonitrile]	501
Cc1c(C=C(c2cc(F)cc(F)c2)S(C)(=O)=O)nn(-c2ccc(Cl)cc2Cl)c1-c1ccc(Br)cc1 [5-(4-Bromo-phenyl)-1-(2,4-dichloro-phenyl)-3-(2-(3,5-difluoro-phenyl)-2-methanesulfonyl-vinyl]-4-methyl-1H-pyrazole]	50.1
O=C(NN1CCCCC1)C1=NN(c2ccc(Cl)cc2Cl)C(c2ccc(Cl)cc2)C1 (stereo not shown) [5-(4-Chloro-phenyl)-1-(2,4-dichloro-phenyl)-4,5-dihydro-1H-pyrazole-3-carboxylic acid piperidine-1-ylamide]	39.8
O=C(NN1CCCCC1)c1nc(-c2ccc(Cl)cc2Cl)c(-c2ccc(Cl)cc2)s1 [5-(4-Chloro-phenyl)-4-(2,4-dichloro-phenyl)-thiazole-2-carboxylic acid piperidin-1-ylamide]	200
